According to the supplement of paper PMC8728848:
This is one part of the list.

What was measured:
Test in all cases: glycan array binding signal (z-score within array); higher = stronger binding
Settings in all cases: glycan notation: IUPAC condensed, linker removed
Fuc(a1-2)Gal = molecular target: Fuc(a1-2)Gal
Procedure, shortened: (§1)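 From the Consortium for Functional Glycomics database, 3228 arrays were curated, keeping only those whose protein sequence was available. Binding is given as a within-array Z-score averaged across arrays sharing a protein sequence and across linkers. Negative Z-scores can be read as non-binding.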

Fuc(a1-2)Gal(b1-3)GalNAc = molecular target: Fuc(a1-2)Gal(b1-3)GalNAc
Procedure, shortened: as §1

[1] = molecular target: Fuc(a1-2)Gal(b1-3)GalNAc(b1-3)Gal
Procedure, shortened: as §1

[2] = molecular target: Fuc(a1-2)Gal(b1-3)GalNAc(b1-3)Gal(a1-4)Gal(b1-4)Glc
Procedure, shortened: as §1

[3] = molecular target: Fuc(a1-2)Gal(b1-3)GalNAc(b1-4)[Neu5Ac(a2-3)]Gal(b1-4)Glc
Procedure, shortened: as §1

Fuc(a1-2)Gal(b1-3)GlcNAc = molecular target: Fuc(a1-2)Gal(b1-3)GlcNAc
Procedure, shortened: as §1

[4] = molecular target: Fuc(a1-2)Gal(b1-3)GlcNAc(b1-3)Gal(b1-4)Glc
Procedure, shortened: as §1

[5] = molecular target: Fuc(a1-2)Gal(b1-3)[Fuc(a1-4)]GlcNAc
Procedure, shortened: as §1

Fuc(a1-2)Gal(b1-4)Glc = molecular target: Fuc(a1-2)Gal(b1-4)Glc
Procedure, shortened: as §1

Fuc(a1-2)Gal(b1-4)GlcNAc = molecular target: Fuc(a1-2)Gal(b1-4)GlcNAc
Procedure, shortened: as §1

[6] = molecular target: Fuc(a1-2)Gal(b1-4)GlcNAc(b1-3)Gal(b1-4)GlcNAc
Procedure, shortened: as §1

[7] = molecular target: Fuc(a1-2)Gal(b1-4)GlcNAc(b1-3)Gal(b1-4)GlcNAc(b1-3)Gal(b1-4)GlcNAc
Procedure, shortened: as §1

[8] = molecular target: Fuc(a1-2)Gal(b1-4)[Fuc(a1-3)]GlcNAc
Procedure, shortened: as §1

[9] = molecular target: Fuc(a1-2)Gal(b1-4)[Fuc(a1-3)]GlcNAc(b1-3)Gal(b1-4)[Fuc(a1-3)]GlcNAc
Procedure, shortened: as §1

[10] = molecular target: Fuc(a1-2)Gal(b1-4)[Fuc(a1-3)]GlcNAc(b1-3)Gal(b1-4)[Fuc(a1-3)]GlcNAc(b1-3)Gal(b1-4)[Fuc(a1-3)]GlcNAc
Procedure, shortened: as §1

Fuc(a1-2)GlcNAc = molecular target: Fuc(a1-2)GlcNAc
Procedure, shortened: as §1

Fuc(a1-2)[Gal(a1-3)]Gal = molecular target: Fuc(a1-2)[Gal(a1-3)]Gal
Procedure, shortened: as §1

[11] = molecular target: Fuc(a1-2)[Gal(a1-3)]Gal(b1-3)GlcNAc
Procedure, shortened: as §1

[12] = molecular target: Fuc(a1-2)[Gal(a1-3)]Gal(b1-4)Glc
Procedure, shortened: as §1

[13] = molecular target: Fuc(a1-2)[Gal(a1-3)]Gal(b1-4)GlcNAc
Procedure, shortened: as §1

[14] = molecular target: Fuc(a1-2)[Gal(a1-3)]Gal(b1-4)[Fuc(a1-3)]GlcNAc
Procedure, shortened: as §1

[15] = molecular target: Fuc(a1-2)[Gal(a1-4)]Gal(b1-4)GlcNAc
Procedure, shortened: as §1

[16] = molecular target: Fuc(a1-2)[GalNAc(a1-3)]Gal
Procedure, shortened: as §1

[17] = molecular target: Fuc(a1-2)[GalNAc(a1-3)]Gal(b1-3)GlcNAc
Procedure, shortened: as §1

[18] = molecular target: Fuc(a1-2)[GalNAc(a1-3)]Gal(b1-4)Glc
Procedure, shortened: as §1

[19] = molecular target: Fuc(a1-2)[GalNAc(a1-3)]Gal(b1-4)GlcNAc
Procedure, shortened: as §1

[20] = molecular target: Fuc(a1-2)[GalNAc(a1-3)]Gal(b1-4)[Fuc(a1-3)]GlcNAc
Procedure, shortened: as §1

[21] = molecular target: Fuc(a1-2)[GalNAc(a1-4)]Gal(b1-4)GlcNAc
Procedure, shortened: as §1

[22] = molecular target: Fuc(a1-2)[GalNAc(b1-3)]Gal
Procedure, shortened: as §1

Fuc(a1-3)GlcNAc = molecular target: Fuc(a1-3)GlcNAc
Procedure, shortened: as §1

[23] = molecular target: Fuc(a1-3)[Gal(b1-4)]GlcNAc
Procedure, shortened: as §1

[24] = molecular target: Fuc(a1-3)[Gal(b1-4)]GlcNAc(b1-4)Gal(b1-4)[Fuc(a1-3)]GlcNAc
Procedure, shortened: as §1

[25] = molecular target: Fuc(a1-3)[Gal(b1-4)]GlcNAc(b1-4)Gal(b1-4)[Fuc(a1-3)]GlcNAc(b1-4)Gal(b1-4)[Fuc(a1-3)]GlcNAc
Procedure, shortened: as §1

[26] = molecular target: Fuc(a1-3)[Gal3S(b1-4)]GlcNAc
Procedure, shortened: as §1

[27] = molecular target: Fuc(a1-3)[GalNAc(b1-4)]GlcNAc
Procedure, shortened: as §1

Fuc(a1-4)GlcNAc = molecular target: Fuc(a1-4)GlcNAc
Procedure, shortened: as §1

Fuc(b1-3)GlcNAc = molecular target: Fuc(b1-3)GlcNAc
Procedure, shortened: as §1

B1: PA-IL (Pseudomonas aeruginosa) (protein)
chain: AWKGEVLANNEAGQVTSIIYNPGDVITIVAAGWASYGPTQKWGPQGDREHPDQGLICHDAFCGALVMKIGNSGTIPVNTGLFRWVAPNNVQGAITLIYNDVPGTYGNNSGSFSVNIGKDQS
- glycan array binding signal (z-score) (Fuc(a1-2)Gal): -0.365
- glycan array binding signal (z-score) (Fuc(a1-2)Gal(b1-3)GalNAc): -0.364
- glycan array binding signal (z-score) [1]: -0.321
- glycan array binding signal (z-score) [2]: -0.104
- glycan array binding signal (z-score) [3]: -0.365
- glycan array binding signal (z-score) (Fuc(a1-2)Gal(b1-3)GlcNAc): -0.365
- glycan array binding signal (z-score) [4]: -0.365
- glycan array binding signal (z-score) [5]: -0.365
- glycan array binding signal (z-score) (Fuc(a1-2)Gal(b1-4)Glc): -0.362
- glycan array binding signal (z-score) (Fuc(a1-2)Gal(b1-4)GlcNAc): -0.364
- glycan array binding signal (z-score) [6]: -0.365
- glycan array binding signal (z-score) [7]: -0.362
- glycan array binding signal (z-score) [8]: -0.362
- glycan array binding signal (z-score) [9]: -0.364
- glycan array binding signal (z-score) [10]: -0.364
- glycan array binding signal (z-score) (Fuc(a1-2)GlcNAc): -0.365
- glycan array binding signal (z-score) (Fuc(a1-2)[Gal(a1-3)]Gal): 2.09
- glycan array binding signal (z-score) [11]: 2.19
- glycan array binding signal (z-score) [12]: 1.99
- glycan array binding signal (z-score) [13]: 3.03
- glycan array binding signal (z-score) [14]: 2.42
- glycan array binding signal (z-score) [15]: 3.69
- glycan array binding signal (z-score) [16]: 0.056
- glycan array binding signal (z-score) [17]: -0.11
- glycan array binding signal (z-score) [18]: 0.183
- glycan array binding signal (z-score) [19]: 0.174
- glycan array binding signal (z-score) [20]: 0.183
- glycan array binding signal (z-score) [21]: 2.66
- glycan array binding signal (z-score) [22]: -0.363
- glycan array binding signal (z-score) (Fuc(a1-3)GlcNAc): -0.363
- glycan array binding signal (z-score) [23]: -0.363
- glycan array binding signal (z-score) [24]: -0.365
- glycan array binding signal (z-score) [25]: -0.363
- glycan array binding signal (z-score) [26]: -0.365
- glycan array binding signal (z-score) [27]: -0.365
- glycan array binding signal (z-score) (Fuc(a1-4)GlcNAc): -0.364
- glycan array binding signal (z-score) (Fuc(b1-3)GlcNAc): -0.365
